Measurements reported in article PMC4336329 (PLoS ONE, 2015).
Hit rate of the full screen: of about 310,000 compounds, about 14,000 (4.5%) showed an effect of 50% or more. Effects have a minus sign here. The list shows a part of the results.

molecular target: human ether-à-go-go-related gene (hERG) potassium channel (human, UniProt Q12809); experiment: primary screen, population patch clamp on CHO cells stably expressing hERG
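Also: peak tail current of the secondary pulse compared with the same well before compound.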

Chain of human ether-à-go-go-related gene (hERG) potassium channel (Q12809 whole entry, looked up): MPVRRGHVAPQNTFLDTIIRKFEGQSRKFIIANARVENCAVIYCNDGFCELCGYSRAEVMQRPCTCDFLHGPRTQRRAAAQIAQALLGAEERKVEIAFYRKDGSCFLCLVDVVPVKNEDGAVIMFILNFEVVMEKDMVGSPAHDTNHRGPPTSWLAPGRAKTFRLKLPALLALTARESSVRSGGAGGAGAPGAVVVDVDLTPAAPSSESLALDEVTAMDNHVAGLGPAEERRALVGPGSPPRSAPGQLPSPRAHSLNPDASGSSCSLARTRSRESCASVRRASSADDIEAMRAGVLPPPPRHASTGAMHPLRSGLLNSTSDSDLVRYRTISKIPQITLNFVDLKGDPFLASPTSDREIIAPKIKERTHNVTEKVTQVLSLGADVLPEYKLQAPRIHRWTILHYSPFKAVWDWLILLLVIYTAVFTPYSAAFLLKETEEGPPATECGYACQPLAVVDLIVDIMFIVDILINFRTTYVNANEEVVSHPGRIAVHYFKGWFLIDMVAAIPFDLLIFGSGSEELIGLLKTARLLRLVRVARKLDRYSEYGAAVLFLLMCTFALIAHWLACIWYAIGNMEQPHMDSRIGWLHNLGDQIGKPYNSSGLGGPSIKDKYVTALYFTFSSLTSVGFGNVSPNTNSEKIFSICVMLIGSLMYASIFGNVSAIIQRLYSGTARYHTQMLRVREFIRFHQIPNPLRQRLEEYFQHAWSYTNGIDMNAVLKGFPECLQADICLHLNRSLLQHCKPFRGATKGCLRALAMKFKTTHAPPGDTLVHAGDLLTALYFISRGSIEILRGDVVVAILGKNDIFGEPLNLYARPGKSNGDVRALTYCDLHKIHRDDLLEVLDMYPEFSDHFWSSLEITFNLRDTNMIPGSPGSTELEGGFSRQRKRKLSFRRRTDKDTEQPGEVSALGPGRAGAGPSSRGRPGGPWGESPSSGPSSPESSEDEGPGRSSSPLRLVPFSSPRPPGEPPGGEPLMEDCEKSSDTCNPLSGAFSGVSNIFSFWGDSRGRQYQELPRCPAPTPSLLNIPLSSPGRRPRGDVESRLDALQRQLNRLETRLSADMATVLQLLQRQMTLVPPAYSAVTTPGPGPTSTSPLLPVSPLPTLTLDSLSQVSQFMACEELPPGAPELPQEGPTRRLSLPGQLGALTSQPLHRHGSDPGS

| SMILES | hERG current change (%, negative = inhibition) at 10uM |
| --- | --- |
| CN(CC1CCOCC1)C(=O)CC1C(=O)NCCN1Cc1ccccc1F (centres unmarked) | 14.3% |
| Cc1cc(CN(C)C(=O)CC2C(=O)NCCN2Cc2ccc(F)c(F)c2)on1 (centres unmarked) | 31.1% |
| Cc1ccc(-n2c(SCC(=O)NCc3ccco3)nc3c(sc4ccccc43)c2=O)cc1 | 14.8% |
| COc1ccc(CN(C)C(=O)Cc2c[nH]c3ccccc23)c(OC)c1OC | 12.4% |
| Cc1cc(-c2cc(-c3ccc(Cl)cc3)nc(N)c2C#N)co1 | -1.55% |
| COc1ccc(CCC2CCNCC2)cc1.Cl | 8.29% |
| COc1ccc(OCC(=O)Nc2ccc(S(=O)(=O)N3CCN(C)CC3)cc2)cc1 | 0.00648% |
| Clc1ccc(SCc2cc(Cl)nc(-c3ccccc3)n2)cc1 | 12.2% |
| O=C(CC(CC(=O)c1ccc(Br)cc1)c1cccnc1)c1ccc(Br)cc1 | 15.4% |
| CC1=NN(C(C#N)c2c(C)nn(Cc3ccccc3)c2C)C(C)(C)C1 (centres unmarked) | 17.3% |
| CCOC(=O)c1ccc(NCc2ccncc2)cc1 | -1.66% |
| Cc1c(C(=O)N(Cc2cccc(Br)c2)C2CCS(=O)(=O)C2)oc2ccc(F)cc12 (centres unmarked) | 6.32% |
| N#Cc1cc(C#N)c(N2CCN(c3cccc(Cl)n3)CC2)nc1N | -43.8% |
| Cc1cc(C(=O)N2CCCC(N3CCN(c4cccc(C(F)(F)F)c4)CC3)C2)nn1C (centres unmarked) | -16.7% |
| O=S(=O)(c1ccc(Cl)cc1Cl)N1CCCC1c1cccnc1 (centres unmarked) | 7.32% |
| CCC(C)NC(=O)C1(O)c2cc(Br)ccc2NC(=O)N1c1cccc(OC)c1 (centres unmarked) | 16.7% |
| CCN1CCCC(OC(=O)c2cc(-c3ccccc3Cl)nc3ccccc23)C1.Cl (centres unmarked) | -65.3% |
| Cn1c(NC(=O)c2ccc(Br)o2)cc(=O)n(C)c1=O | -8.27% |
| CCOC(=O)c1cncc(C#CCOC(=O)Nc2ccc(OC(F)(F)F)cc2)c1 | 17.9% |
| CC(C)Cc1nn2c(=O)cc(COc3ccc(NC(=O)c4ccco4)cc3)nc2s1 | 13.1% |
| Cc1csc(NC(=O)c2nc(-c3ccccc3)n(-c3ccccc3)n2)n1 | -79.2% |
| COC(=O)C(C(=O)OC)c1ncc(C(F)(F)F)cc1Cl | 28.2% |

| SMILES | hERG current change (%, negative = inhibition) at 10uM |
| --- | --- |
| O=C(Nc1nnc(-c2cc(Cl)ccc2Cl)o1)C1=COCCO1 | -7.18% |
| O=C(NNC(=O)c1cccs1)c1ccc(Cl)nc1 | -5.05% |
| O=C(COC(=O)/C=C/c1ccc2c(c1)OCO2)NC1CC1 | -0.722% |
| CCc1ccc(NC(=O)CCS(=O)(=O)c2cccc3nsnc23)cc1 | -33% |
| CCN(CC(=O)Nc1ccc(NC(C)=O)cc1)C(=O)Cc1ccc(S(=O)(=O)N2CCOCC2)s1 | 4.75% |
| CCC(=NCCN1CCNCC1)C1=C(O)CC(C)(C)CC1=O | 0.851% |
| CCOC(=O)C(=Cc1ccc(Br)cc1)C(=O)OCC | 2.7% |
| CCOC(CNC(=O)c1ccc2c(c1)ncn2-c1cccc(F)c1)OCC | -17.3% |
| C=CCn1cc(C(=O)NCCN(CC)CC)c(=O)c2cc(S(=O)(=O)N3CCCCCC3)ccc21 | -71.6% |
| Cc1onc(C(=O)NN)c1-c1csc(COc2ccc(Cl)cc2)n1 | -15.1% |
| COc1cccc(OCCn2cc(C=O)c3ccccc32)c1 | 15.2% |
| CCOc1ccc(CCNC(=O)C(CCC(N)=O)NC(=O)OCc2ccccc2)cc1OCC (centres unmarked) | 8.5% |
| COc1ccc(-c2cc(C(=O)N3CCc4ccccc4C3)no2)cc1OC | -9.63% |
| O=C(COc1ccc(Cl)cc1Cl)OCn1nnc2ccccc2c1=O | 16.8% |
| CCC(=O)Nc1ccc(NC(=S)NC(=O)/C=C/c2ccccc2)cc1 | 11.1% |
| COc1ccc(NC(=O)CN(C)C(=O)c2c(C)nn(Cc3ccccc3)c2C)cc1 | 0.0577% |
| COC(=O)CSc1nc2ccccc2c(=O)n1Cc1ccccc1 | -6.98% |
| O=C(CCC(=O)N1CCOc2ccccc21)Nc1ccccc1Br | -27.9% |
| CC1Cc2cc(S(=O)(=O)NCCC(=O)N(C)Cc3ccccc3)ccc2N1C(=O)C1CC1 (centres unmarked) | -9.73% |
| Cc1onc(C(=O)NN)c1C(=O)N1CCN(C(c2ccccc2)c2ccccc2)CC1 | 9.34% |
| CCCn1c(SCC(=O)OCC)nc(C(F)(F)F)cc1=O | 0.311% |
| O=C(COc1ccccc1Br)NCc1ccco1 | -18.5% |

| SMILES | hERG current change (%, negative = inhibition) at 10uM |
| --- | --- |
| Cc1ccc(OCC(=O)c2cc(C)n(Cc3ccco3)c2C)c([N+](=O)[O-])n1 | 0.256% |
| CCOc1ccc(N/C(=C(/C(Cl)=C(Cl)Cl)[N+](=O)[O-])n2cncn2)cc1 | -13.7% |
| Cn1c(CNC(=O)C(Cc2ccccc2)NC(=O)c2ccccc2F)cc(=O)n(C)c1=O (centres unmarked) | 3.58% |
| Nc1cc2c(cc1[N+](=O)[O-])OCO2 | 18.6% |
| CC[C@]1(c2ccccc2OC)ON(c2ccccc2C(F)(F)F)C1=O | 20.3% |
| Cc1sc2ncnc(OCC(=O)N3CC(=O)Nc4ccccc43)c2c1C | -1.93% |
| Cc1csc(SCc2c(C(=O)O)oc3ccccc23)n1 | 20.2% |
| CCOC(=O)c1c(NC(=O)COC(=O)c2ccccn2)sc2c1CCC2 | -0.64% |
| OC(COCc1cccs1)CN1CCN(c2ccccc2Cl)CC1 (centres unmarked) | -71% |
| CC(=O)c1ccc2c(c1)OCCOCCOc1ccccc1OCCOCCO2 | -74.4% |
| Cc1cccc(C(=O)Nc2ccc3c(c2)ncn3C)c1 | 7.95% |
| Cc1ccccc1-n1nc2c(c1NC(=O)c1cc3ccccc3oc1=O)CS(=O)(=O)C2 | -6.93% |
| CC(=O)N1CC(C)Sc2ccc(S(=O)(=O)NCc3ccccc3Cl)cc21 (centres unmarked) | -8.78% |
| C[C@@H]1CC[C@@]2(OC1)O[C@H]1C[C@H]3[C@@H]4CC=C5C[C@@H](O)[C@H](O)C[C@]5(C)C4CC[C@]3(C)[C@H]1[C@@H]2C (some centres unmarked) | 25.7% |
| CC(C)(C)c1cccc(/C=N/O)c1O | -6.27% |
| CC1(C(=O)NC(=S)NNC(=O)c2ccncc2)CCCCC1 | 11% |
| CCOC(=O)c1c(-c2cccs2)csc1NC(=O)C(C)(C)C | 4.02% |
| COc1ccc(Cl)cc1N1C(=O)/C(=C\c2sccc2C)N=C1SCC(=O)NC1CC1 | 2.84% |
| O=C(CNC(=O)c1ccncc1)N/N=C/c1ccc(O)cc1O | 20.5% |
| CCOC(=O)c1ccc(Nc2cnc3ccccc3n2)cc1 | 11.4% |
| C=C1CC[C@H](O)C/C1=C/C=C1\CCC[C@]2(C)[C@@H]([C@H](C)/C=C/[C@H](C)C(C)C)CC[C@@H]12 | -1.53% |
| COc1ccc(NCc2nnc(SCC(=O)Nc3cccc(C)c3)o2)cc1 | 6.42% |

| SMILES | hERG current change (%, negative = inhibition) at 10uM |
| --- | --- |
| Cc1nnc(NC(=O)C2CCCN2S(=O)(=O)c2ccc(Cl)cc2)s1 (centres unmarked) | -23.8% |
| O=c1[nH]c(NCCCO)nc2c1C1(CCCC1)Cc1ccccc1-2 | -7.54% |
| CC1CCCCN1C(=O)CSc1nnc(-c2ccc(Cl)s2)o1 (centres unmarked) | -33.8% |
| CC(OC(=O)c1snc(C(=O)NC2CCCCC2)c1N)C(=O)NC(C)(C)C (centres unmarked) | 1.54% |
| O=C(COC(=O)c1ccc(S(=O)(=O)C(F)F)cc1)Nc1ccccc1C(=O)NC1CC1 | 11.5% |
| Cc1cc(NC(=O)Nc2cc(C)nn2-c2ccccc2)n(-c2ccccc2)n1 | -5% |
| CCC(C)(C)n1nnnc1C(c1cc2cccc(C)c2[nH]c1=O)N1CCN(C(=O)c2ccco2)CC1 (centres unmarked) | -21.5% |
| N#CC1=C(N)C2=CCCC[C@H]2[C@H](c2cccc(F)c2)C1(C#N)C#N | -9.57% |
| O=C(COC(=O)CCCN=C1NS(=O)(=O)c2ccccc21)NC(=O)NC1CCCC1 | 18.3% |
| COc1ccccc1NS(=O)(=O)c1cccc(C(=O)NCC(c2ccco2)N2CCCCC2)c1 (centres unmarked) | -23.4% |
| Cc1ccc(-c2ccccc2NC(=O)C2C3C=CC(C3)C2C(=O)O)o1 (centres unmarked) | -4.9% |
| O=S(=O)(CCSc1nc2ccccc2o1)c1nc2ccccc2s1 | -5.57% |
| C=CCNC(=O)COc1c(C)ccc(C)c1C | 0.626% |
| CC1CCc2c(C(=O)NCc3ccccn3)csc2C1 (centres unmarked) | 3.13% |
| CC(C)C[C@H](NC(=O)C1CCN(S(=O)(=O)c2ccccc2)CC1)C(=O)NCc1cccnc1 | -2.56% |
| COc1ccc(NC(=O)CCNC(=O)Cn2cnc3ccccc3c2=O)c(OC)c1 | -5.59% |
| Cc1cc(S(=O)(=O)N2CCCC(N(C)CCc3ccccn3)C2)c(C)cc1Cl (centres unmarked) | -71.6% |
| COc1ccc(CCNC(=O)CCCCCN2C(=O)c3ccccc3C2=O)cc1 | -28.6% |
| COC(=O)c1cc(NC(=O)c2c(-c3ccccc3)noc2C)ccc1N1CCOCC1 | -6.24% |
| Cc1ccc2c(c1)c1c3n2CCN(CC#N)C3CCC1 (centres unmarked) | 2.24% |
